Assay results published in paper PMC8266636, “Rrp1 translocase and ubiquitin ligase activities restrict the genome destabilising effects of Rad51 in fission yeast” (Nucleic Acids Research, 2020).
No constants are given. Whether binding was seen depends on the method and setting. For part of these data: Binding seen in cells or lysates may run through a third protein. Some binding calls cover weakened binding; strength is not graded here. For part of these data: Sequences can lack the tags named with a protein.

T1: Rrp2 (yeast two-hybrid fusion) (S. pombe) (UniProt O60177)
T1 sequence: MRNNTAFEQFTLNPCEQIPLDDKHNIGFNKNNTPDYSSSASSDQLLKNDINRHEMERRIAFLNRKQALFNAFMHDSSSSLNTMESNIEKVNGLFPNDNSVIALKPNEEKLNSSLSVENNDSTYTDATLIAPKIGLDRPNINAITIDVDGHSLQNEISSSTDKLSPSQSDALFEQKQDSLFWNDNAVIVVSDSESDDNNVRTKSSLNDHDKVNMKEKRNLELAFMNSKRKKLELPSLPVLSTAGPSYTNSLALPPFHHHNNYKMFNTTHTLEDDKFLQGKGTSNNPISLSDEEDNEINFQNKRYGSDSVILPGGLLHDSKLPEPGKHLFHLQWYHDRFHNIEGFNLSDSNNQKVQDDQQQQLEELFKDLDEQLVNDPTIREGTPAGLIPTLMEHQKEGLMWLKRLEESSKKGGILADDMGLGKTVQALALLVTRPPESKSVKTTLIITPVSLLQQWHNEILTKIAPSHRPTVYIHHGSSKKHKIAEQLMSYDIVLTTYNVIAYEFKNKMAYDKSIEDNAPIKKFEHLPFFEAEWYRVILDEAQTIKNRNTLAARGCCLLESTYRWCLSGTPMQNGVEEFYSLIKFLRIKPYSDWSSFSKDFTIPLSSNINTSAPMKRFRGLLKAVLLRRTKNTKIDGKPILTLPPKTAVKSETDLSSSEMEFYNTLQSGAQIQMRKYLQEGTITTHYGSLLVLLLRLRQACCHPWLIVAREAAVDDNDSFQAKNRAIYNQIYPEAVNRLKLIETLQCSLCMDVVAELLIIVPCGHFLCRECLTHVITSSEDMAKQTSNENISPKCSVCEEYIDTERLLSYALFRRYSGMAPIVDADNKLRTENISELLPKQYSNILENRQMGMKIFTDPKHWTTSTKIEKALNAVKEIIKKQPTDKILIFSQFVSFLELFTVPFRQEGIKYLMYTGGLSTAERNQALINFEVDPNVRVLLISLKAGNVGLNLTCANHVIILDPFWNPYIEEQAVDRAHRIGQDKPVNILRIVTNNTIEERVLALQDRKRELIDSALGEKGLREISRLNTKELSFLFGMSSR

T2: Rrp1 (yeast two-hybrid fusion) (S. pombe) (UniProt O13762)
T2 sequence: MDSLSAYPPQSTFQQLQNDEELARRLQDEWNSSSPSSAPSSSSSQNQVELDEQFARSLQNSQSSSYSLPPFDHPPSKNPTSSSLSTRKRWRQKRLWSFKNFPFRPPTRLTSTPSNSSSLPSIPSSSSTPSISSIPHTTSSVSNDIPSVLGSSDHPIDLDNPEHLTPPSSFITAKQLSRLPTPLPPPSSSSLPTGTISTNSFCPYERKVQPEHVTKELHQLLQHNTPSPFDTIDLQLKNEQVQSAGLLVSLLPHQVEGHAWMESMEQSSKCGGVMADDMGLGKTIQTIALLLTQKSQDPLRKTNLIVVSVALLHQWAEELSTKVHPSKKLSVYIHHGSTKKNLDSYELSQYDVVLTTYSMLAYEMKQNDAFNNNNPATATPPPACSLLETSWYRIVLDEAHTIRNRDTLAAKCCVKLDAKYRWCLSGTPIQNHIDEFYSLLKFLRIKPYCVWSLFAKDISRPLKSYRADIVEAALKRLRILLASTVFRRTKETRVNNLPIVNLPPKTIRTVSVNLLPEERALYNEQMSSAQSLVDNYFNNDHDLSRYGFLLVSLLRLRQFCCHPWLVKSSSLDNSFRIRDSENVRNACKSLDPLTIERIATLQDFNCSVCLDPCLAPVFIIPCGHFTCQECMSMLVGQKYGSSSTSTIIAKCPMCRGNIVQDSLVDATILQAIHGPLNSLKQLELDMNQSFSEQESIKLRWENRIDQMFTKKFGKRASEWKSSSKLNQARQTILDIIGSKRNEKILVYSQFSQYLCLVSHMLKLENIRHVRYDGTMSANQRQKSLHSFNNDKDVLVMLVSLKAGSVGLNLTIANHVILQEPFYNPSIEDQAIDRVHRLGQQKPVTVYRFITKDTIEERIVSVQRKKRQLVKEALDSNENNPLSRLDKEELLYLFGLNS

T3: C-terminal fragment of Rrp1 (residues 695-897) containing the C-helicase domain (S. pombe) (UniProt O13762)
T3 sequence: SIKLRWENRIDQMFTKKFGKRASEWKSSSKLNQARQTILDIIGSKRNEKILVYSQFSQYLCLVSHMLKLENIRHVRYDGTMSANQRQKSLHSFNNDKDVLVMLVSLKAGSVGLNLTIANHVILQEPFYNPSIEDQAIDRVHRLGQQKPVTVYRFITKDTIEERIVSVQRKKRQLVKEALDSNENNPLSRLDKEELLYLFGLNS

T4: Rrp1-FLAG (overproduced in S. pombe) (S. pombe) (UniProt O13762)
T4 sequence: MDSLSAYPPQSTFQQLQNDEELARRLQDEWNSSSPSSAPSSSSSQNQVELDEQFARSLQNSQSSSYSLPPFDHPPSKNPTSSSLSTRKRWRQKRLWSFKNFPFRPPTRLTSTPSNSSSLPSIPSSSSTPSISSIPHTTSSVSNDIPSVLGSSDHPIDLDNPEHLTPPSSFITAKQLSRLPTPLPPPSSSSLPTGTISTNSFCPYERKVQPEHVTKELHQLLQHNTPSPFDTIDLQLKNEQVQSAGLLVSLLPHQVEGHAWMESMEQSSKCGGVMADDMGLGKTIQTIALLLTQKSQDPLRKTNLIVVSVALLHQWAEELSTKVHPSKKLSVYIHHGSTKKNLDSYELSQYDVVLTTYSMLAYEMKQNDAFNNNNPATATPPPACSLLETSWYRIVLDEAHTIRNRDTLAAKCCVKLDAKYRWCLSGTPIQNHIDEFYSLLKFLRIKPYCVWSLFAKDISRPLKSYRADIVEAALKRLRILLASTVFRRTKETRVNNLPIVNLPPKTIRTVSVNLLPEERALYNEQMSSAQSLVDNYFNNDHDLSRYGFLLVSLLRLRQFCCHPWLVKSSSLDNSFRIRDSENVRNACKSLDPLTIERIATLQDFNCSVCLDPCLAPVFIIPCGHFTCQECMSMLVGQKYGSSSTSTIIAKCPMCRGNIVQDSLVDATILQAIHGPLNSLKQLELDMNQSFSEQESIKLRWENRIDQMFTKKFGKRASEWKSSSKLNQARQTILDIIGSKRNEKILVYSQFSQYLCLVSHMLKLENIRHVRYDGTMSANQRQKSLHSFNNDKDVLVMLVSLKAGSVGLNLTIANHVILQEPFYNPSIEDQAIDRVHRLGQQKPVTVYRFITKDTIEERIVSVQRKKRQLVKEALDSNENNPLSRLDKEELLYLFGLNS

T5: Rrp2-FLAG (overproduced in S. pombe) (S. pombe) (UniProt O60177)
T5 sequence: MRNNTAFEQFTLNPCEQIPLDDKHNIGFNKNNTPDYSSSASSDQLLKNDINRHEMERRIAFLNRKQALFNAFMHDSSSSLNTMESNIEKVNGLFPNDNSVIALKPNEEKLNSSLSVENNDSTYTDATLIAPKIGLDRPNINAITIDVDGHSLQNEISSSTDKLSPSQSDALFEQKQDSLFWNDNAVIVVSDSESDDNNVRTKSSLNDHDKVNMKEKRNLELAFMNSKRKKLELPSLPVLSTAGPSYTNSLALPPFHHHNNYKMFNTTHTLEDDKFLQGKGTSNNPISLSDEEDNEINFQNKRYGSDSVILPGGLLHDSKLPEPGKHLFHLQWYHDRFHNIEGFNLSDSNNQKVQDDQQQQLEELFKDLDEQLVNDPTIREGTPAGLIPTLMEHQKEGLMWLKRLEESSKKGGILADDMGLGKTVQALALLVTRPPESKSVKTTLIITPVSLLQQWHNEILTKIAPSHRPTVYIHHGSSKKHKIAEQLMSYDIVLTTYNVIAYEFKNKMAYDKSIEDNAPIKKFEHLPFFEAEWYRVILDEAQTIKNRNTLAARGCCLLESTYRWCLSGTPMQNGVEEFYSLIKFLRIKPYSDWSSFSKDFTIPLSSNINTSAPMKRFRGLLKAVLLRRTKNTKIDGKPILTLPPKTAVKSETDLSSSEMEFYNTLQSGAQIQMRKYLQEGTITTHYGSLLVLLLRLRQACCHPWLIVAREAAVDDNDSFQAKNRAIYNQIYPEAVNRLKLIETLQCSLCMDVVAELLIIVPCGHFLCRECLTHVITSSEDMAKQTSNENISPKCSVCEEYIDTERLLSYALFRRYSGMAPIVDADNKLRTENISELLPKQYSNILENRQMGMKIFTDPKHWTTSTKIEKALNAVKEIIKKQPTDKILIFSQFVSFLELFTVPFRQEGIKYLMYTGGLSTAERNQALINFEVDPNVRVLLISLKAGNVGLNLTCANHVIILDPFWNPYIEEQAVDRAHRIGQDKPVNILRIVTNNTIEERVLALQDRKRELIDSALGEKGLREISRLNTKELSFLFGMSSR


Assays:
[1] = molecular target: T1, Rrp2 (yeast two-hybrid fusion) (S. pombe); test: two-hybrid; Gal4-based Matchmaker Two-Hybrid System 3 (Clontech), pGADT7 and pGBKT7 fusions in S. cerevisiae AH109; growth on SD DO-3 (low stringency) and SD DO-4 (high stringency), 3-5 days at 28°C
[2] = molecular target: T2, Rrp1 (yeast two-hybrid fusion) (S. pombe); test: as above
[3] = molecular target: T3, C-terminal fragment of Rrp1 (residues 695-897) containing the C-helicase domain (S. pombe); test: as above
[4] = molecular target: T4, Rrp1-FLAG (overproduced in S. pombe) (S. pombe); test: co-IP; S. pombe extracts (H buffer) with native levels of Rad51 and overproduced FLAG-tagged Rrp1 or Rrp2; precipitated with anti-FLAG M2 affinity gel, eluted with 3xFLAG peptide, western blot with anti-FLAG and anti-Rad51
[5] = molecular target: T5, Rrp2-FLAG (overproduced in S. pombe) (S. pombe); test: as above

Row | Binder | binding [1] | binding [2] | binding [3] | binding [4] | binding [5]
1 | Rad51-C (C-terminal, residues 114-365 containing the Walker A and B motifs) (domain or fragment, UniProt P36601 114-365) YHIRRSELITITTGSKQLDTLLQGGVETGSITELFGEFRTGKSQICHTLAVTCQLPIDMGGGEGKCLYIDTEGTFRPVRLLAVADRYGLNGEEVLDNVAYARAYNADHQLELLQQAANMMSESRFSLLVVDSCTALYRTDFSGRGELSARQMHLARFMRTLQRLADEFGIAVVITNQVVAQVDGISFNPDPKKPIGGNILAHSSTTRLSLRKGRGEQRICKIYDSPCLPESEAIFAINSDGVGDPKEIIAPV | no binding | binds | binds |  | 
2 | Rad51 (purified) (natural protein, S. pombe, UniProt P36601 1-365, looked up, Rad51 of Schizosaccharomyces pombe; also called purified Rad51) MADTEVEMQVSAADTNNNENGQAQSNYEYDVNVQDEEDEAAAGPMPLQMLEGNGITASDIKKIHEAGYYTVESIAYTPKRQLLLIKGISEAKADKLLGEASKLVPMGFTTATEYHIRRSELITITTGSKQLDTLLQGGVETGSITELFGEFRTGKSQICHTLAVTCQLPIDMGGGEGKCLYIDTEGTFRPVRLLAVADRYGLNGEEVLDNVAYARAYNADHQLELLQQAANMMSESRFSLLVVDSCTALYRTDFSGRGELSARQMHLARFMRTLQRLADEFGIAVVITNQVVAQVDGISFNPDPKKPIGGNILAHSSTTRLSLRKGRGEQRICKIYDSPCLPESEAIFAINSDGVGDPKEIIAPV |  |  |  | binds | no binding
3 | Rad51-N (N-terminal, residues 1-117) (domain or fragment, UniProt P36601 1-117) MADTEVEMQVSAADTNNNENGQAQSNYEYDVNVQDEEDEAAAGPMPLQMLEGNGITASDIKKIHEAGYYTVESIAYTPKRQLLLIKGISEAKADKLLGEASKLVPMGFTTATEYHIR | no binding |  |  |  | 
